This is an account of results in the supplement of paper PMC10338343.

± gives the standard deviation. The list shows a part of the results, in another mix than the full data.
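Note: 1 nM active piRISC with 0.1 nM target library at 33 °C single turnover.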

The test system of this test is MIWI (PIWIL1) piRISC loaded with piRNA #1 (30 nt). The test is described as follows: pre-steady-state target cleavage rate (min^-1); MIWI and MILI are mouse PIWI proteins and EfPiwi is from a freshwater sponge; tags in brackets are library labels; higher = faster piRNA-guided slicing of the target. Conditions: guide: piRNA #1 5'p-UGAGGUAGUAGGUUGUAUAGUAUCCAGAGG; auxiliary factor: 500 nM mouse GTSF1. An outline of the steps: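 In this Cleave-'n-Seq assay, uncleaved targets were sequenced and normalised to depth and to weakly complementary targets. They came from a transcribed, DNA-blocked target RNA library […] mixed with 1 nM active affinity-purified piRISC carrying one synthetic guide, with or without 500 nM GTSF1 partner protein, in HEPES–potassium acetate buffer at 33 °C for 0–8 or 0–960 min. After three trials were pooled and k3 was capped at 0.0001 min^-1, the pre-steady-state cleavage rate was obtained from a burst-and-steady-state fit.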
In the case of GGAGACCUUACUAUACAGACCUACUACCUCA, the “pre-steady-state target cleavage rate” value was less than 0.0001.

Consider GGAGACCUAUCUAUACUACCUACUACCUGA, for which the “pre-steady-state target cleavage rate” value was found to be 0.0141 ± 0.0038.

Turning to GGAGAGGAUACUUUACAACCUACUACCUGA, the “pre-steady-state target cleavage rate” value came out at 0.243 ± 0.033.

Turning to GGAGACGAUACUAACAACCUACUACCUCA, the “pre-steady-state target cleavage rate” value was found to be 1.35 ± 0.094.

Turning to GGAGACCAUACUAAACAACCUACAACCUCA, the “pre-steady-state target cleavage rate” value is 0.378 ± 0.05.

In the case of GGAGACGAUACUUUACAACCAACUACCUCA, the “pre-steady-state target cleavage rate” value is 0.0791 ± 0.0084.

In the case of GCUGUGGAUUCUAUACAACCUACUACCUCA, the “pre-steady-state target cleavage rate” value came to 1.69 ± 0.1.

On to GGAGUGGAUAGAAUACAACCUACUACCUCA, for which the “pre-steady-state target cleavage rate” value stood at 0.962 ± 0.078.

GGAGACGAUACUAUACAACCCACUACCUCA: the “pre-steady-state target cleavage rate” value turned out to be 0.669 ± 0.029.

For GGAGUGGUUACUAUACAACCUACAACCUCA, the “pre-steady-state target cleavage rate” value came out at 0.386 ± 0.03.

With GGAGACCUAUCUAUUCAACCUACUACGUCA, the “pre-steady-state target cleavage rate” value was determined as 0.247 ± 0.041.

As for GGAGAGGAUACAAUACAACCUACUUCCUCA, the “pre-steady-state target cleavage rate” value is 0.246 ± 0.043.

On to GGAGUGGAUACUAUACAACCAACUACGUCA, for which the “pre-steady-state target cleavage rate” value is 0.079 ± 0.0092.

In the case of GGACAGGAUACUAUACUACCUACUACCUCA, the “pre-steady-state target cleavage rate” value was 1.45 ± 0.1.

In the case of GGAGUGGAUACUAUACAACCUACAUCCUCA, the “pre-steady-state target cleavage rate” value is 0.0216 ± 0.0041.

With GGAGACCUUACUAUACAACCUACUACCUACA, the “pre-steady-state target cleavage rate” value turned out to be 1.2 ± 0.073.

Regarding GGACUGGAUACUAUAUCAACCUACUACCUCA, the “pre-steady-state target cleavage rate” value was 0.435 ± 0.1.

In the case of GGACUGGAUACUAUAGAACGUACUACCUCA, the “pre-steady-state target cleavage rate” value came to 0.381 ± 0.041.

Take CCUCUGGAUACUAUACAACCUACAACCUGA: the “pre-steady-state target cleavage rate” value was found to be 0.543 ± 0.1.

For the sequence GGAGACCUAACUAUACAACCUACUUCCUCA, the “pre-steady-state target cleavage rate” value was 0.265 ± 0.042.

CCUCUGGAUACUAUACAAGCUACUACCUCA: the “pre-steady-state target cleavage rate” value came to 1.46 ± 0.069.

Take GGACUGGAUACUAUACAUCCUACUUCCUCA: the “pre-steady-state target cleavage rate” value was 0.124 ± 0.022.

On to CCUCUGGAUACUAUACUACCUACUUCCUCA, for which the “pre-steady-state target cleavage rate” value was 0.655 ± 0.067.

For GGAGACCUUACUAUACAACCUACUACCUA, the “pre-steady-state target cleavage rate” value was 1.01 ± 0.081.
